Where a name gives a salt, the structure may show the parent alone. The full ranking holds about 1,900 compounds; the median of “cell viability of compound + 1 nM pemigatinib relative to pemigatinib-only (DMSO) wells” is about 0.95, and the lowest 2% start at about 0.22. The list shows a part of the results.
The compounds below were run on PDC-DUC18828 (assay: cell viability of compound + 1 nM pemigatinib relative to pemigatinib-only (DMSO) wells (fraction); PDC-DUC18828 is a patient-derived cholangiocarcinoma cell line; higher = less growth inhibition). Settings: first compound 1 µM; pemigatinib concentration 1 nM; 72 h.
Protocol: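 Selleck Bioactive library screen in the patient-derived FGFR2 fusion-positive ICC cell line PDC-DUC18828 (500 cells/well). Each compound was tested at 1 uM with 1 nM pemigatinib, in triplicate, for 72 h. Viability was read by CellTiter-Glo and normalised to plate DMSO controls. Value is the paper's averaged normalised viability.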

Compound	cell viability
CC(C)(Sc1cc(C(C)(C)C)c(O)c(C(C)(C)C)c1)Sc1cc(C(C)(C)C)c(O)c(C(C)(C)C)c1 [Probucol] + CCN1C(=O)N(c2c(F)c(OC)cc(OC)c2F)Cc2cnc3[nH]c(CN4CCOCC4)cc3c21 [pemigatinib]	1.04
C/C=C1\NC(=O)[C@H]2CSSCC/C=C/[C@H](CC(=O)N[C@H](C(C)C)C(=O)N2)OC(=O)[C@H](C(C)C)NC1=O [Romidepsin (FK228, Depsipeptide)] + CCN1C(=O)N(c2c(F)c(OC)cc(OC)c2F)Cc2cnc3[nH]c(CN4CCOCC4)cc3c21 [pemigatinib]	0.035
O=C(O)CC[C@H]1CC[C@@](c2cc(F)ccc2F)(S(=O)(=O)c2ccc(Cl)cc2)CC1 + CCN1C(=O)N(c2c(F)c(OC)cc(OC)c2F)Cc2cnc3[nH]c(CN4CCOCC4)cc3c21 [pemigatinib]	1.01
COc1ccccc1N1CCN(CC(O)COc2cccc3ccccc23)CC1 (configuration not stated) [Naftopidil DiHCl] + CCN1C(=O)N(c2c(F)c(OC)cc(OC)c2F)Cc2cnc3[nH]c(CN4CCOCC4)cc3c21 [pemigatinib]	0.957
COc1ccccc1N1CCN(CC(O)COc2cccc3ccccc23)CC1 (configuration not stated) [Naftopidil] + CCN1C(=O)N(c2c(F)c(OC)cc(OC)c2F)Cc2cnc3[nH]c(CN4CCOCC4)cc3c21 [pemigatinib]	0.997
CN1CCC(=C2c3ccccc3CC(=O)c3sccc32)CC1 [Ketotifen Fumarate] + CCN1C(=O)N(c2c(F)c(OC)cc(OC)c2F)Cc2cnc3[nH]c(CN4CCOCC4)cc3c21 [pemigatinib]	0.907
Nc1nc(N)c2nc(-c3cccc(O)c3)cnc2n1 + CCN1C(=O)N(c2c(F)c(OC)cc(OC)c2F)Cc2cnc3[nH]c(CN4CCOCC4)cc3c21 [pemigatinib]	0.843
COc1ccc(CCNCc2ccc(OCc3ccc(Cl)nc3)c(OC)c2)cc1OC + CCN1C(=O)N(c2c(F)c(OC)cc(OC)c2F)Cc2cnc3[nH]c(CN4CCOCC4)cc3c21 [pemigatinib]	0.89
CCOc1ccc(Cc2cc([C@@H]3O[C@H](SC)[C@@H](O)[C@H](O)[C@H]3O)ccc2Cl)cc1 [Sotagliflozin (LX4211)] + CCN1C(=O)N(c2c(F)c(OC)cc(OC)c2F)Cc2cnc3[nH]c(CN4CCOCC4)cc3c21 [pemigatinib]	1.03
CC(C)(C)C(=O)OCOP(=O)(COCCn1cnc2c(N)ncnc21)OCOC(=O)C(C)(C)C [Adefovir Dipivoxil] + CCN1C(=O)N(c2c(F)c(OC)cc(OC)c2F)Cc2cnc3[nH]c(CN4CCOCC4)cc3c21 [pemigatinib]	0.696
N#CC(c1ccc(Cl)cc1)c1c(Cl)cc(-n2ncc(=O)[nH]c2=O)cc1Cl (configuration not stated) [Diclazuril] + CCN1C(=O)N(c2c(F)c(OC)cc(OC)c2F)Cc2cnc3[nH]c(CN4CCOCC4)cc3c21 [pemigatinib]	1.1
COc1cc(OC)c(C(=O)CCCN2CCCC2)c(OC)c1 [Buflomedil HCl] + CCN1C(=O)N(c2c(F)c(OC)cc(OC)c2F)Cc2cnc3[nH]c(CN4CCOCC4)cc3c21 [pemigatinib]	0.967
Cc1ccc(NC(=O)c2ccc(CN3CC[C@H](N(C)C)C3)c(C(F)(F)F)c2)cc1Nc1nccc(-c2cncnc2)n1 [Bafetinib (INNO-406)] + CCN1C(=O)N(c2c(F)c(OC)cc(OC)c2F)Cc2cnc3[nH]c(CN4CCOCC4)cc3c21 [pemigatinib]	0.913
CCCCCCCCCCC[C@@H](C[C@@H]1OC(=O)[C@H]1CCCCCC)OC(=O)[C@H](CC(C)C)NC=O [Orlistat] + CCN1C(=O)N(c2c(F)c(OC)cc(OC)c2F)Cc2cnc3[nH]c(CN4CCOCC4)cc3c21 [pemigatinib]	1.05
CC1(C)CCC(CN2CCN(c3ccc(C(=O)NS(=O)(=O)c4ccc(NCC5CCOCC5)c([N+](=O)[O-])c4)c(Oc4cnc5[nH]ccc5c4)c3)CC2)=C(c2ccc(Cl)cc2)C1 + CCN1C(=O)N(c2c(F)c(OC)cc(OC)c2F)Cc2cnc3[nH]c(CN4CCOCC4)cc3c21 [pemigatinib]	0.953
CS(=O)(=O)c1cccc(CNc2nc(Nc3ccc4c(c3)CCC(=O)N4)ncc2C(F)(F)F)c1 + CCN1C(=O)N(c2c(F)c(OC)cc(OC)c2F)Cc2cnc3[nH]c(CN4CCOCC4)cc3c21 [pemigatinib]	0.997
CCC[C@H](Nc1nc(-c2ccc(NC(=O)NCC)c(OC)c2)ncc1C)c1cccnc1 [CYT997 (Lexibulin)] + CCN1C(=O)N(c2c(F)c(OC)cc(OC)c2F)Cc2cnc3[nH]c(CN4CCOCC4)cc3c21 [pemigatinib]	0.268
COc1cc2ncc(-c3ccccc3)nc2cc1OC [Tyrphostin AG 1296] + CCN1C(=O)N(c2c(F)c(OC)cc(OC)c2F)Cc2cnc3[nH]c(CN4CCOCC4)cc3c21 [pemigatinib]	1.04
CC(=O)[C@@]1(O)CC[C@H]2[C@@H]3CCC4=CC(=O)CCC4=C3[C@@H](c3ccc(N(C)C)cc3)C[C@@]21C [Ulipristal] + CCN1C(=O)N(c2c(F)c(OC)cc(OC)c2F)Cc2cnc3[nH]c(CN4CCOCC4)cc3c21 [pemigatinib]	0.966

Compound	cell viability
CC(C)(Oc1ccc(Cl)cc1)C(=O)O [Clofibric Acid] + CCN1C(=O)N(c2c(F)c(OC)cc(OC)c2F)Cc2cnc3[nH]c(CN4CCOCC4)cc3c21 [pemigatinib]	0.993
COc1cc(Nc2ncc(F)c(Nc3ccc4c(n3)NC(=O)C(C)(C)O4)n2)cc(OC)c1OC [R406 (free base)] + CCN1C(=O)N(c2c(F)c(OC)cc(OC)c2F)Cc2cnc3[nH]c(CN4CCOCC4)cc3c21 [pemigatinib]	0.964
COc1cc(Nc2ncc(F)c(Nc3ccc4c(n3)NC(=O)C(C)(C)O4)n2)cc(OC)c1OC + CCN1C(=O)N(c2c(F)c(OC)cc(OC)c2F)Cc2cnc3[nH]c(CN4CCOCC4)cc3c21 [pemigatinib]	0.97
O=NO [Sodium Nitrite] + CCN1C(=O)N(c2c(F)c(OC)cc(OC)c2F)Cc2cnc3[nH]c(CN4CCOCC4)cc3c21 [pemigatinib]	0.96
O=C(O)CCC(=O)Nc1ccc(Br)cn1 [Bikinin] + CCN1C(=O)N(c2c(F)c(OC)cc(OC)c2F)Cc2cnc3[nH]c(CN4CCOCC4)cc3c21 [pemigatinib]	0.899
COc1ccc(C(=O)Nc2sc3c(c2C(N)=O)CCCC3)cc1OC + CCN1C(=O)N(c2c(F)c(OC)cc(OC)c2F)Cc2cnc3[nH]c(CN4CCOCC4)cc3c21 [pemigatinib]	1.01
CO[C@H]1O[C@@H]2O[C@@]3(C)CC[C@H]4[C@H](C)CC[C@@H]([C@H]1C)[C@@]24OO3 [Artemether] + CCN1C(=O)N(c2c(F)c(OC)cc(OC)c2F)Cc2cnc3[nH]c(CN4CCOCC4)cc3c21 [pemigatinib]	0.916
O=c1c2ccccc2oc2ccccc12 [Xanthone] + CCN1C(=O)N(c2c(F)c(OC)cc(OC)c2F)Cc2cnc3[nH]c(CN4CCOCC4)cc3c21 [pemigatinib]	0.961
CC(C)(C)C[C@@H]1N[C@@H](C(=O)N[C@H]2CC[C@H](O)CC2)[C@H](c2cccc(Cl)c2F)[C@]12C(=O)Nc1cc(Cl)ccc12 + CCN1C(=O)N(c2c(F)c(OC)cc(OC)c2F)Cc2cnc3[nH]c(CN4CCOCC4)cc3c21 [pemigatinib]	0.925
NC12CC3CC(CC(C3)C1)C2 [Amantadine HCl] + CCN1C(=O)N(c2c(F)c(OC)cc(OC)c2F)Cc2cnc3[nH]c(CN4CCOCC4)cc3c21 [pemigatinib]	1.01
Cn1ncc(Cl)c1-c1cc(C(=O)N[C@H](CN)Cc2cccc(F)c2)sc1Cl + CCN1C(=O)N(c2c(F)c(OC)cc(OC)c2F)Cc2cnc3[nH]c(CN4CCOCC4)cc3c21 [pemigatinib]	0.758
CCCN(CCc1cccs1)[C@H]1CCc2c(O)cccc2C1 [Rotigotine] + CCN1C(=O)N(c2c(F)c(OC)cc(OC)c2F)Cc2cnc3[nH]c(CN4CCOCC4)cc3c21 [pemigatinib]	1.02
Clc1ccc(COC(Cn2ccnc2)c2ccc(Cl)cc2Cl)c(Cl)c1 (configuration not stated) [Miconazole] + CCN1C(=O)N(c2c(F)c(OC)cc(OC)c2F)Cc2cnc3[nH]c(CN4CCOCC4)cc3c21 [pemigatinib]	0.908
Clc1ccc(COC(Cn2ccnc2)c2ccc(Cl)cc2Cl)c(Cl)c1 (configuration not stated) [Miconazole Nitrate] + CCN1C(=O)N(c2c(F)c(OC)cc(OC)c2F)Cc2cnc3[nH]c(CN4CCOCC4)cc3c21 [pemigatinib]	0.883
Cc1cc(=O)n(-c2ccccc2)n1C [Antipyrine] + CCN1C(=O)N(c2c(F)c(OC)cc(OC)c2F)Cc2cnc3[nH]c(CN4CCOCC4)cc3c21 [pemigatinib]	0.916
CC1CCc2c(N3CCC(O)CC3)c(F)cc3c(=O)c(C(=O)O)cn1c23 (configuration not stated) [Nadifloxacin] + CCN1C(=O)N(c2c(F)c(OC)cc(OC)c2F)Cc2cnc3[nH]c(CN4CCOCC4)cc3c21 [pemigatinib]	0.931
Brc1ccc([C@H]2CN3CCSC3=N2)cc1 [(-)-p-Bromotetramisole Oxalate] + CCN1C(=O)N(c2c(F)c(OC)cc(OC)c2F)Cc2cnc3[nH]c(CN4CCOCC4)cc3c21 [pemigatinib]	0.993
C=CC(=O)N1CCC(Oc2cc3c(Nc4ccc(Cl)c(Cl)c4F)ncnc3cc2OC)CC1 [Poziotinib (HM781-36B)] + CCN1C(=O)N(c2c(F)c(OC)cc(OC)c2F)Cc2cnc3[nH]c(CN4CCOCC4)cc3c21 [pemigatinib]	0.542

Reference: the supplement of paper PMC9588766
